In the RNAGym collection of RNA variant scans (doi:10.1073/pnas.2313332121):
This sample is rich in variants without activity.

B1: TPR 5TU (parent)
chain: GGAUCUUCUCGAUCUAACAAAAAAGACAAAUCUGCCACAAAGCUUGAGAGCAUCUUCGGAUGCAGAGGCGGCAGCCUUCGGUGGCGCGAUAGCGCCAACGUUCUCAACUAUGACACGCAAAACGCGUGCUCCGUUGAAUGGAGUUUAUCAUG

Variants of: B1
Experiment: polymerase ribozyme fitness, log enrichment relative to wild type (log ratio); higher = more active; in vitro selection for triplet polymerase activity
Procedure, shortened: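 One round of in vitro selection, in triplicate, was applied to PCR-built, transcribed mutant libraries of each subunit of a heterodimeric triplet polymerase ribozyme. The steps were annealing with a biotinylated primer, partner subunit and triplets, incubation frozen at −7 °C, gel excision of extended constructs, streptavidin-bead capture and RT-PCR. Fitness is the logarithm, base 2, of genotype enrichment over wild-type enrichment from inverse-variance-weighted replicate averages of Illumina-sequenced inputs and outputs, keeping genotypes with ≥10 input reads and ≥1 read per output.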

Variant	polymerase ribozyme fitness (log ratio)
A29G A60G C95G C149G	≤ -4.2
A28U A41G G50U	≤ -4.2
A28U C76G G92U	≤ -4.2
C27U G58A A64G A73G C87G A120G	≤ -4.2
A28U A47G G59A U77G A110U A137U U145A	≤ -4.2
A29U A41U C69U C95A C118G C125U U148A	≤ -4.2
A28G C35U A73U	≤ -4.2
A28C A49C G50A A106G A115G A142C	≤ -4.2
A29G C132G	≤ -4.2
A29C A49G C54U C105U	≤ -4.2
C27U C63G C75A U127G A137U	≤ -4.2
C27U G58A C96U C116U C118G U144G	-0.836
A29U A41C A52C C87U U102C G136A G143C U146A	≤ -4.2
A29U G84A G92C C116U U139A A142C	≤ -4.2
A28C C57A G80C A89U A91U C96G U127A C131G U148G	≤ -4.2
C27U C93U A138C	≤ -4.2
A28C G42C C72U C87A C118U C123U C129G U135G	≤ -4.2
A29C C69U U146A	≤ -4.2
A29U C57G A98G A107U G140A	≤ -4.2
A29G C35G U56G G68A G81A C99A C114A G143C	≤ -4.2
A28U A39U U55A C79U G84A A113G U139C G143A	≤ -4.2

Variant	polymerase ribozyme fitness (log ratio)
A28U G68U C99U A110G	≤ -4.2
C27U U31C C63U G86U U102G U109A A120G U145G	≤ -4.2
A28U C75U	≤ -4.2
A28U A40U G50A G58A U101G U130A	≤ -4.2
A28U U56A C79U C93U C125U	≤ -4.2
A29U G46U C96G U146C U148G U151C	≤ -4.2
A29C C54U C85U	≤ -4.2
A28U G50A	≤ -4.2
A29G U33C U53A C79U A113U	≤ -4.2
A28C G46A C93U U148C	≤ -4.2
A28C A30U C57U G58A G59A G68U C69U	≤ -4.2
A29C A47C A64C C99A A115U G141C U146A	≤ -4.2
A28U A39C U90G C95U G100C G126U	≤ -4.2
A28U G48U	≤ -4.2
A28U A41C C96A G141C	-4.02
A29G A30U U45A G68C C85A A91G A106U	≤ -4.2
A28U G74A C85U A91U	≤ -4.2
A29G A66G C87G U101G A107G A115G A119G A147C	≤ -4.2
A29C G59C A89U A97G G126A	≤ -4.2
A28G U55G C69G C87G A97G	≤ -4.2
A29G A60C G80A A121U G141U	≤ -4.2

Variant	polymerase ribozyme fitness (log ratio)
C27U G46A C75A A91U G94A	≤ -4.2
A29U A60C A66U G80A G140U G141A	≤ -4.2
A29U A40U A47G U77A U82C G92U A119C C125U U144C	≤ -4.2
A28G A52C U55C C63A C87U A91U	≤ -4.2
A28U C54U U56A G94A C131G U151A	≤ -4.2
A28U G83A	≤ -4.2
A29G G58U C95A C99A G143U	≤ -4.2
A29C A30U C85G U146C U151A	≤ -4.2
C27U C57A A64U C87U U90C	≤ -4.2
A28C G84A G94U C96G C108G U139C G143C	≤ -4.2
A28G A30G G50A U90C U144C	≤ -4.2
A29C C131U G140U	≤ -4.2
A28C U53A A89U	≤ -4.2
A28U C32U A37G G68U G86A	≤ -4.2
A29U C96A G124U C131U	≤ -4.2
A29U G50U A122C A142U	≤ -4.2
A29G U102G	≤ -4.2
A29G G86U G143A	≤ -4.2
A28C C87G G117C A137U	≤ -4.2
A28G G50A C57U C69A C79U C96A C105U G124A	≤ -4.2
A28U A37C C79U C87U	-3.89

Variant	polymerase ribozyme fitness (log ratio)
A28U A41C G42A C54U C57U C85G A106G A115U	≤ -4.2
A29U A39U U55A C79A C93G	≤ -4.2
A29C G59A C131U	≤ -4.2
A28G U45G A47C A52C G59A G65C A89G G92C U151G	≤ -4.2
A29U C85G A106U	≤ -4.2
C27U G67C C75U C87A C99G U146C	≤ -4.2
A28G A60C C76G	≤ -4.2
A28U C51U G68U G81U G92U C93A G126A U134G	≤ -4.2
A29C C36U G50C A64G U78G U82C G84A U90C G94U	≤ -4.2
A29G G50C G71U C95U C114A A138G C149U	≤ -4.2
A29U C32A A66C C87U C105U	≤ -4.2
A29G A41C	-3.63
A28C A73G A110U G124U	≤ -4.2
C27U C43U C95U A119U G143C U144C	-4.15
A28U A49C C103G	≤ -4.2
A29U G46C A52C G92C A122U	≤ -4.2
A29C C85G C96A G133U U151G	≤ -4.2
A29U G65A U104A C132G G133A	≤ -4.2
A29U G50U C116U A147U	-4.04
A29C C51U G59A C87A C96A U111G U145A U151A	≤ -4.2
C27U G50A C51A A64U C79U A89G G141A	≤ -4.2
